This is an account of results in the supplement of paper PMC8728848.

The other results are listed elsewhere or left out.

Test in all cases: glycan array binding signal (z-score within array); higher = stronger binding
What all share (conditions): glycan notation: IUPAC condensed, linker removed

Test [1] addresses Gal(b1-2)Gal. The method in brief:
(§1)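 Glycan array binding is given as a within-array Z-score, which can be read as non-binding when negative. The arrays, 3228 of them, came from the Consortium for Functional Glycomics database and were retained only where the protein sequence was available. Z-scores were averaged across arrays of the same protein sequence at different concentrations or buffers and across linkers.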

For test [2], the target named is Gal(b1-3)Gal. In short, it runs like this: as §1
Test [3] addresses Gal(b1-3)Gal(b1-4)GlcNAc. The method in brief: as §1
Test [4] deals with Gal(b1-3)GalNAc. The method in brief:
as §1

The target of test [5] is Gal(b1-3)GalNAc(a1-3)[Fuc(a1-2)]Gal(b1-4)Glc. The method in brief:
as §1

The target of test [6] is Gal(b1-3)GalNAc(a1-3)[Fuc(a1-2)]Gal(b1-4)GlcNAc. In short, it runs like this: as §1
The target of test [7] is Gal(b1-3)GalNAc(b1-3)Gal. The method in brief:
as §1

Test [8] has as its target Gal(b1-3)GalNAc(b1-3)Gal(a1-4)Gal(b1-4)Glc. In short, it runs like this:
as §1

The target of test [9] is Gal(b1-3)GalNAc(b1-4)Gal(b1-4)Glc. In short, it runs like this: as §1
The target in test [10] is Gal(b1-3)GalNAc(b1-4)[Neu5Ac(a2-3)]Gal(b1-4)Glc. The method in brief:
as §1

The target of test [11] is Gal(b1-3)GlcNAc. In short, it runs like this:
as §1

Test [12] deals with Gal(b1-3)GlcNAc(a1-3)Gal(b1-4)GlcNAc. In short, it runs like this: as §1
Test [13] has as its target Gal(b1-3)GlcNAc(a1-6)Gal(b1-4)GlcNAc. In short, it runs like this:
as §1

The target in test [14] is Gal(b1-3)GlcNAc(b1-2)Man. The method in brief:
as §1

Test [15] deals with Gal(b1-3)GlcNAc(b1-2)Man(a1-3)[Gal(b1-3)GlcNAc(b1-2)Man(a1-6)]Man(b1-4)GlcNAc(b1-4)GlcNAc. The method in brief:
as §1

For test [16], the target named is Gal(b1-3)GlcNAc(b1-2)Man(a1-3)[Gal(b1-3)GlcNAc(b1-2)Man(a1-6)]Man(b1-4)GlcNAc(b1-4)[Fuc(a1-6)]GlcNAc. In short, it runs like this: as §1
In test [17] the target is Gal(b1-3)GlcNAc(b1-2)Man(a1-3)[GlcNAc(b1-4)][Gal(b1-3)GlcNAc(b1-2)Man(a1-6)]Man(b1-4)GlcNAc(b1-4)GlcNAc. In short, it runs like this:
as §1

Test [18] deals with Gal(b1-3)GlcNAc(b1-2)[Gal(b1-3)GlcNAc(b1-6)]Man(a1-6)[Gal(b1-3)GlcNAc(b1-2)Man(a1-3)]Man(b1-4)GlcNAc(b1-4)GlcNAc. The method in brief: as §1
The target of test [19] is Gal(b1-3)GlcNAc(b1-3)Gal(b1-3)GlcNAc. The method in brief: as §1
The target in test [20] is Gal(b1-3)GlcNAc(b1-3)Gal(b1-4)Glc. In short, it runs like this: as §1
Test [21] concerns the target Gal(b1-3)GlcNAc(b1-3)Gal(b1-4)GlcNAc. The method in brief: as §1
The target of test [22] is Gal(b1-3)GlcNAc(b1-3)Gal(b1-4)GlcNAc(b1-2)Man(a1-3)[Gal(b1-3)GlcNAc(b1-3)Gal(b1-4)GlcNAc(b1-2)Man(a1-6)]Man(b1-4)GlcNAc(b1-4)GlcNAc. The method in brief:
as §1

B1: Epa10 (protein)
chain: MNEKIFRYLTLLFLFELARSLPVEDKLNIKKVFEKRAVDFTPFAHYPRPEGCSSPPNSVSVGLHMNLYNYPYLYVKPSTKGMFTNDTNSDADGETDGDSAGGIEGRAGQCWNPEYQDPNFPRFGYKQYGEFGASDNVNGDISWDHNEFTEGCKPVLAALPPGYNYPDEITFSNFTMVLSGYFKPKTSGVYKFELKADDFILFNFGAKNAFECCNREESIDNFGPYVAYAMWPNQADQELEVYLFEDSYYPLRLFYNNRDYHSKFKIGFYPPGQTTITFDFDGYLFMLDDTGNECRDSIRYRTVCDDKVVDDTTYSTRYSTSMVPGGGSDVITIYYIRMKCEEEDCLGQWDPINNVCYSPDDCADDGGYWNGQMCDQSCKLEGGIVNPDTGDCDKSCIESGGFLDENGNCDTTCRDDGGMLVEGQCDYQCKEAGGILVGDHCDTTCVDSGGKLNEDGTCDHSCRDQGGQLDENGECDTSCKDSGGMLIEGECDTSCKDEGGQLDDNNECINHCKDQGGIIDENGNCDTSCKDSGGKLDESGACDTSCRDDGGIIDENGNCNTTCRDDGGIIVGDHCDTSCRDAGGILIEDHCDTTCRDSGGKLNEDGTCDHSCRDQGGQLDENGKCDYSCKNGGGKLDEDGNCDMSCKENGGKLDENGDCDLSCKEDGGKLDGNGDCDYSCKEEGGVIDESGNCNTTCKDSGGQIIDGECNYGCIEVGGVVIDGECDTSCIDSGGILDGDGNCDRSCIESGGVLEDGACNTTCRDSGGQLNVDGTCDTSCRDDGGMLVEGQCDYQCKEAGGILEDGECVFPPTSSSTSETSSTTDQSSLQSDDSSMESSSTPMDSSTIESSSSEIITSESESESVPIASSSSEVMTSESESESIPILTSSSEIPIASSSSEIPVASSSSEIIIPESESESVPVASSSSEIPIASSSSEIPVASSSSEIPVASSSSEIIIPESESESIPIESTSSEAVSSRSESDSSYPTPTPTTTTITTWPNPIQPTTSNSSPIVSSSTETPGIAESSSRISDLESSRRTSILGDDRTRTRTTITSTITEDGQIITITTTVTGFVPEPTGETEGNGSDDENPENPIENNTDENEFLDPEFTDDIPDDPAGPEDNGNGPVNPEQGNDNDPVNLEDSGNNGAVNPEQAPVNDEDNGGNDPVNPEQDNNNGPANPGQDSTNGSGNSDQIDNNPPTPEENAGDGNSNGNDPADPSRRTSILGDERTRASPGGTSQPTGANGNVNGNSPGANVNGGGTGNSNNNNNNNNNNNNGNAPNGGDGSNGDANQGPSRRTSLLGDERTRAGQAAPTGGSSPDNGIAGDTSNNGGAIVSQQVDDGGAGSPRRTSILGDVRSRTTLNGEVLNFEGSGVRRAVAGNLALPLMMVGLVFNL
For the molecule B1, the “glycan array binding signal (z-score)” value in test [1] turned out to be 0.325; in test [2] it was 1.36; in test [3], 4.92; in [4], 3.84; in test [5], 3.03; in test [6] it was 3.87. Also, the “glycan array binding signal (z-score)” value is 6.03 in [7]; 4.11 in test [8]; 17 in test [9]; 4.18 in [10]; -0.17 in test [11]; -0.278 in test [12]. In addition, the “glycan array binding signal (z-score)” value is -0.276 in test [13]; -0.19 in test [14]; -0.043 in test [15]; -0.126 in [16]; -0.112 in test [17]; -0.229 in test [18]. In addition, the “glycan array binding signal (z-score)” value was -0.172 in test [19], -0.177 in test [20], -0.228 in [21] and -0.134 in test [22].
